From the supplement of paper PMC3334620
Over roughly 33,000 sequences, “E-score (-0.5 to 0.5)” has its median near -0.011; the highest 2% begin near 0.28. The list shows a part of the results.

target: T1, Gcr1 (UniProt P07261); assay: PBM E-score (8-mer binding enrichment) (E-score (-0.5 to 0.5)); higher = stronger / more preferred TF binding; most listed sequences are background and not binding sites; conditions: protein concentration: 100 nM; construct: GST-full length
T1 sequence: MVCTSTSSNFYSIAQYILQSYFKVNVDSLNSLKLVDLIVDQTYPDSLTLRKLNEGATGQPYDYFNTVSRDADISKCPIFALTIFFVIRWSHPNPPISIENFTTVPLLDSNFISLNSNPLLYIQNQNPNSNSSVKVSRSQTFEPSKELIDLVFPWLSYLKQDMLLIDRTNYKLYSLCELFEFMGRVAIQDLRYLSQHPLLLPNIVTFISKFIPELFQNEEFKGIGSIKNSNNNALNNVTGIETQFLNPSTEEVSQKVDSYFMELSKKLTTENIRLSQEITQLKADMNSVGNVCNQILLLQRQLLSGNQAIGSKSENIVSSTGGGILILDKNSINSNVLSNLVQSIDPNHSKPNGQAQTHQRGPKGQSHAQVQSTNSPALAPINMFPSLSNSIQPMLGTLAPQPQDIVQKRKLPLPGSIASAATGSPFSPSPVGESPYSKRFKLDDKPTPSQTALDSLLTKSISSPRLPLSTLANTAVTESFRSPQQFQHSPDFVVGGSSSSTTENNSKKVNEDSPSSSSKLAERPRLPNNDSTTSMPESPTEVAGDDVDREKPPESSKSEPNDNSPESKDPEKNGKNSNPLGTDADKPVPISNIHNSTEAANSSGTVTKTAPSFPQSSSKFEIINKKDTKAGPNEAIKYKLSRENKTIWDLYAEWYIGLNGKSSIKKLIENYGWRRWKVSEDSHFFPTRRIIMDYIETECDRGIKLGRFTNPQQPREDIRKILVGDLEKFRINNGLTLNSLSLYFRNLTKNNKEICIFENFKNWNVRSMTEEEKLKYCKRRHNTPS
Outline: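 Universal all-10-mer Agilent arrays, fresh or stripped once, were converted to double-stranded form by primer extension. GST-tagged yeast transcription factors from PURExpress in vitro transcription/translation, full-length or DNA-binding domain only, were applied at about 100-200 nM and detected with fluorescent anti-GST. After masliner normalisation, the Universal PBM Analysis Suite scored each ungapped eight-base word together with its reverse complement by E-score.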

| Sequence | PBM E-score |
| --- | --- |
| ACCTCTAA | 0.16 |
| AGGCTGGG | -0.283 |
| CTATCAGA | 0.119 |
| ACGCGCGC | -0.0242 |
| AAACCCCA | -0.135 |
| AGCATTAA | 0.0279 |
| CTGTGGTC | 0.0226 |
| GCACGTAA | 0.00144 |
| CGCTATAG | -0.0823 |
| ATCCGCAG | 0.0551 |
| GTCTTCCA | -0.0117 |
| ATAATTAC | 0.0678 |
| ACGATAAT | 0.203 |
| ACATAATG | 0.202 |
| GGGGCCTA | 0.00152 |
| CTATCAAG | -0.0254 |
| GTCTTCAC | -0.0782 |
| GTAGTAAA | -0.0106 |
| ACAACTAC | -0.0744 |
| ATAGAGCC | -0.113 |
| ACAGGAGG | 0.147 |
| GCGACGGA | -0.00405 |
| AGATATAC | -0.115 |
| AATGGAGG | -0.0955 |
| CTGCGAAC | -0.199 |

| Sequence | PBM E-score |
| --- | --- |
| AAGGACAG | -0.163 |
| ATATCGTA | 0.0394 |
| GTTAGGTA | 0.0805 |
| GTGTTAAA | -0.0648 |
| ATATTAGA | 0.134 |
| CCATGCCG | -0.2 |
| AAAGACTC | -0.195 |
| CCAAGGTA | -0.102 |
| GGCAGGTA | -0.0896 |
| AGAAACGC | -0.0117 |
| ATGTCCGG | -0.119 |
| AAAGGAGA | 0.0351 |
| GGAAGCGA | 0.175 |
| GCTTGACC | -0.0319 |
| ACCGGCTA | -0.0906 |
| AAGGATAA | 0.0259 |
| CCGGATAC | 0.196 |
| AATACATC | 0.0446 |
| GGCCATAA | 0.0361 |
| AATCTGGA | 0.257 |
| AGCGGCTC | 0.119 |
| AATACGAC | 0.111 |
| GTCGTTGA | -0.219 |
| CCATTAGG | -0.0417 |
| GGCGGCCC | 0.032 |

| Sequence | PBM E-score |
| --- | --- |
| AACATTCA | 0.18 |
| CGAACGAG | 0.00212 |
| CGAGAGAG | -0.16 |
| CGACTCAG | -0.00629 |
| AAATCCCT | -0.0536 |
| CAAGATCA | 0.0637 |
| ACCCCACC | 0.138 |
| AGGATCAA | -0.0866 |
| ATAATCTG | 0.0736 |
| ATACCCCA | 0.0867 |
| CTTTCTAA | 0.157 |
| ACTTACTA | -0.153 |
| CAAAGGCG | -0.134 |
| ATTGTGAA | 0.0151 |
| GAGTCTCA | -0.199 |
| AGACATTA | -0.0316 |
| TGGGGACA | 0.00214 |
| GGATACAA | -0.0278 |
| CCTATGAA | 0.129 |
| CAGCCCCA | 0.197 |
| GCAAGGTA | -0.00536 |
| CATTATTA | 0.195 |
| CACCGCGG | -0.0161 |
| ACCTCACA | -0.188 |
| ACCTCGAG | 0.00455 |

| Sequence | PBM E-score |
| --- | --- |
| CGGACCGA | -0.164 |
| CCTTAAAC | 0.162 |
| CTTGTGTC | -0.00768 |
| TCACAAAA | 0.131 |
| CCCGGGAC | 0.21 |
| CGTTGTCC | 0.0549 |
| ACACACCC | -0.0652 |
| ACGTATCC | 0.0516 |
| TGGATAAA | 0.11 |
| CCCTGGAA | -0.204 |
| AGCACGGA | -0.144 |
| ATGCCAAG | 0.106 |
| ACGGGTTA | -0.0288 |
| CCAACTCG | -0.0252 |
| CCCGAGGC | -0.187 |
| CTATGGCC | -0.0723 |
| TCCATAGA | 0.203 |
| GTACACTA | -0.0677 |
| CCTGCCGA | -0.143 |
| AAGTTACA | 0.0278 |
| CTACACGC | 0.0499 |
| CTGTACTA | -0.0995 |
| ACAAATGG | -0.118 |
| AGCTATCC | -0.286 |
| AGTCGCGA | -0.136 |

| Sequence | PBM E-score |
| --- | --- |
| TAGTGTGA | -0.287 |
| CCGCGTGC | -0.109 |
| CATACCAC | -0.236 |
| AGGTTCAT | -0.302 |
| CGTAACTC | -0.158 |
| AGAAGACC | -0.182 |
| CACATGGC | 0.0107 |
| GATTAAAA | 0.249 |
| AGCATCAG | -0.256 |
| ATAGTCCA | -0.0733 |
| CCCCATAG | -0.0622 |
| GTGGACAC | 0.153 |
| CATATTTC | 0.133 |
| CCGATTGC | -0.0335 |
| CAACAATG | -0.0929 |
| CGTTCCCA | -0.0578 |
| ATCAATCC | 0.141 |
| CCGTCGAA | -0.0976 |
| ACGAGGTA | -0.0585 |
| AAATATTA | 0.163 |
| AGCTCAAG | -0.255 |
| ACTTGTAT | 0.207 |
| GGGCAACC | 0.0954 |
| ACACTATG | -0.0627 |
| GCGCGAGC | -0.152 |

| Sequence | PBM E-score |
| --- | --- |
| CCACCGAG | -0.137 |
| CTTGAAAG | -0.0544 |
| CTATAGGC | 0.114 |
| TACCCAAA | 0.2 |
| CCGCAAAC | 0.166 |
| CTAAGTCC | -0.146 |
| GCACGCGA | -0.15 |
| CTGAGTTC | 0.0373 |
| GGGGTGAC | -0.122 |
| CTCACTCC | -0.0538 |
| AAAAGAAA | 0.0118 |
| GCAATCCC | -0.123 |
| GAATGAAC | -0.0801 |
| AGGTAACA | 0.0528 |
| ACAGTCGA | -0.191 |
| AAGCAGCG | 0.135 |
| GCACTACC | -0.102 |
| GAACCCGA | 0.195 |
| CAGAACGC | -0.0196 |
| GCAAACAC | -0.104 |
| CAAATCTA | 0.109 |
| CCCTCGGC | -0.244 |
| GAGTCTCC | 0.0372 |
| CTGTTCTC | -0.11 |
| CGACAAAG | 0.154 |

| Sequence | PBM E-score |
| --- | --- |
| AAGTTTTC | -0.0608 |
| ATTCCTGC | 0.048 |
| CGCGAACC | 0.0289 |
| AAATGCAA | -0.0918 |
| CGACGATA | 0.00085 |
| AACGTGGA | -0.11 |
| AGACGAAG | 0.335 |
| GTCCTATA | -0.00162 |
| CATGAAGA | -0.0181 |
| AAGGGAGT | -0.24 |
| GTGTCTAA | -0.0454 |
| ACGACTTG | -0.08 |
| AAAGTCCT | 0.0622 |
| ACGCAAAG | -0.14 |
| ACAACAGC | 0.0183 |
| AGCCCACG | -0.116 |
| CTGCTTAC | 0.0339 |
| ATAAGACA | 0.049 |
| CAACTTCA | -0.0643 |
| TGGGAACA | -0.0255 |
| AAAGGGCA | -0.206 |
| AGTTCTGA | -0.102 |
